PubChem BioAssay AID624417 (National Center for Advancing Translational Sciences (NCATS), 2012)
Several values for one entry are separate records, joined by “and”; a condition that tells them apart may be missing. Identical values can stand only once. In all, about 410,000 compounds went through this assay and about 6,400 (1.6%) were called active. Inconclusive results, whose numbers are uncertain, are shown with a selection of clear calls. Calls follow the shape of the dose curve; as a rule, active = well fitted inhibition curve with a large enough effect; inconclusive = small, poorly fitted or top-dose-only effect; inactive = no such curve, though single readings can be large or run the other way. A potency beside an inconclusive call is a rough fit, not a confirmed value.

Target: Glucagon-like peptide 1 receptor (Homo sapiens) (UniProt P43220)
Chain of UniProt P43220 (P43220 whole entry, looked up): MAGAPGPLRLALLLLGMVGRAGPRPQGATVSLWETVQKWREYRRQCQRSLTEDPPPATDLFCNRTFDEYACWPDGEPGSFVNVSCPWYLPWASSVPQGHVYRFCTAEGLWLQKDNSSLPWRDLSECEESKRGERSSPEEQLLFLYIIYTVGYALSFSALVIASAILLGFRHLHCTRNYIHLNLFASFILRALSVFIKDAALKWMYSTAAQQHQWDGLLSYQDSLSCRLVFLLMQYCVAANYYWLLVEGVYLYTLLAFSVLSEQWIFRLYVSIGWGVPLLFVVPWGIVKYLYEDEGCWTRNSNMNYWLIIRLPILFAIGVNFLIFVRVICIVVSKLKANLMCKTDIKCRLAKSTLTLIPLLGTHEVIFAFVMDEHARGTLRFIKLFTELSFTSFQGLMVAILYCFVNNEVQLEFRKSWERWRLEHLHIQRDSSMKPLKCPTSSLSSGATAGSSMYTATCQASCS
Experiment: qHTS of GLP-1 Receptor Inverse Agonists (Inhibition Mode); also: nearly all actives have a fitted effect of over 55% in size
Settings: HEK293 GLP-1R CRE-luciferase, luminescence, 24 h, GLP-1R form is constitutively active; activity change, negative = inhibition: at 38.3 µM (top of the series) unless noted
How it was run: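 Constitutively active GLP-1R drives a cAMP-responsive luciferase in stably transfected HEK293 cells; test compounds are added after overnight (12 h) attachment and left 24 hr, and signal loss in luminescence marks inhibition.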
% is scaled to controls: 0 for no effect and ±100 for the full control effect; potency is read from the fitted curve at half-maximal effect; tags tell the direction and shape of the fitted curve.

SMILES	Potency	activity change, negative = inhibition
COc1ccc(OC)c(-c2c3cc(O)c(=O)cc-3oc3cc(O)c(O)cc23)c1	inconclusive: 8.91 µM [inhibitor, partial curve, poor fit]	
Cc1ccc(-c2nc(CS(=O)(=O)CC(=O)NC3CCCCCC3)c(C)o2)cc1	inconclusive: 1.78 µM [inhibitor, partial curve, poor fit]	
CCOC(=O)C1CCCN(C(=O)c2ccc(-n3ccc4ccccc43)s2)C1 (centres undefined)	inconclusive: 5.62 µM [inhibitor, single point]	
O=C(Nc1ccc2c(c1)OCCO2)C(C1CC1)N1CCC(Cc2ccccc2)CC1 (centres undefined)	inconclusive: 28.2 µM [inhibitor, single point]	
OC(c1cc(Cl)cc(Cl)c1)c1ncc(-c2ccccc2C(F)(F)F)[nH]1 (centres undefined)	inconclusive: 12.6 µM [inhibitor, single point]	
Cn1nnc2c[n+](CC(=O)c3ccc4ccccc4c3)cc(Br)c21	inconclusive: 8.91 µM [inhibitor, partial curve, poor fit]	
O=C(NCc1ccccc1)C(=O)NCC(c1ccco1)N1CCOCC1 (centres undefined)		inactive: 14.7%
CN(C)CCOC(=O)CC12CC3CC(C1)CC(CC(=O)OCCN(C)C)(C3)C2	inconclusive: 15.8 µM [inhibitor, partial curve, poor fit]	
Cc1ccc(S(=O)(=O)NC2=C(N3CCN(Cc4ccccc4)CC3)C(=O)c3ccccc3C2=O)cc1	inconclusive: 1.12 µM [inhibitor, partial curve, poor fit]	
COCc1cc(C)n(CC(=O)NC(C)c2ccccc2)c(=O)c1C#N (centres undefined)		inactive: -2.07%
CC1CC(C)CN(C(=O)CN2CCN(Cc3ccc(Cl)cc3)C2=O)C1 (centres undefined)	inconclusive: 12.6 µM [inhibitor, single point]	
Cc1ccc(C)c(Cn2c(C(C)O)nc3ccccc32)c1 (centres undefined)	inconclusive: 11.2 µM [inhibitor, partial curve, poor fit]	
S=C(Nc1ccccc1)Nc1ccc(Cl)cn1	inconclusive: 10 µM [inhibitor, partial curve, poor fit]	
CCS(=O)(=O)c1ncc(N(Cc2ccc(F)cc2)Cc2ccco2)c(C(=O)Nc2cc(C)ccc2C)n1	inconclusive: 28.2 µM [inhibitor, single point]	
Cc1cc(C(=O)COC(=O)C2=COCCO2)c(C)n1-c1ccc2c(c1)OCO2	inconclusive: 11.2 µM [inhibitor, single point]	
CCCn1c(NCc2ccc(N(CC)CC)cc2)nc2ccccc21	inconclusive: 28.2 µM [inhibitor, single point]	
CCOC(=O)C1=C(CCc2ccccc2)NC(=O)NC1c1ccc(Br)cc1 (centres undefined)	inconclusive: 14.1 µM [inhibitor, single point]	
O=C(CN1C(=O)/C(=C\c2ccccc2Br)Oc2ccccc21)NCCCN1CCOCC1	inconclusive: 10 µM [inhibitor, partial curve, poor fit]	
CCCN(CCC)C(=O)Cn1c(=O)n(-c2ccc(OC)cc2)c(=O)c2ccc(C(=O)NCc3ccc(C)cc3)cc21		inactive: -13.1%
O=C(c1ccc2nc(-c3ccccc3)c(-c3ccccc3)nc2c1)N1CCCCC1	active: 2.51 µM	

SMILES	Potency	activity change, negative = inhibition
CCOC(=O)CSc1nnc(CNC(=O)c2ccc(OC)cc2)n1C1CCCCC1		inconclusive: -30.2% [inhibitor]
O=C(O)C1C2C=CC(C2)C1C(=O)NCc1ccc2c(c1)OCO2 (centres undefined)		inactive: 3.06%
O=C(Nc1ccc(C(=O)N2CCOCC2)cc1)Nc1cccc(Cl)c1	inconclusive: 11.2 µM [inhibitor, single point]	
CCOc1ccc(-c2csc(/C(C#N)=C/c3ccc(Br)cc3)n2)cc1		inactive: -8.64%
CC(C)(C)c1ccc(C(=O)O[C@H]2[C@H](Cc3ccccc3)NS(=O)(=O)[C@H]3C[C@@H]4C=C[C@]23O4)cc1	inconclusive: 22.4 µM [inhibitor, single point]	
CN(C)c1ccc(CNC(=O)c2cc(S(=O)(=O)N3CCCC3)cn2C)cc1	inconclusive: 2.82 µM [inhibitor, full curve, poor fit]	
CC(=O)c1ccc(Nc2cc(C)nc3ccc(C)cc23)cc1	inconclusive: 10 µM [inhibitor, partial curve, poor fit]	
COc1cccc(-c2csc(N3CCN(C(=S)Nc4ccc(Cl)cc4)CC3)n2)c1	inconclusive: 11.2 µM [inhibitor, partial curve, poor fit]	
CCN1CCN(c2c(S(=O)(=O)c3ccc(C)c(C)c3)cnc3ccc(F)cc23)CC1	inconclusive: 10 µM [inhibitor, partial curve, poor fit] and inconclusive: 31.6 µM [inhibitor, single point]	
Cn1c(=O)c(NCCc2ccccc2)c2c3c(cccc31)C(=O)c1ccccc1-2	inconclusive: 11.2 µM [inhibitor, partial curve, poor fit]	
O=C(NCCSc1ccccc1)c1ccccc1	inconclusive: 28.2 µM [inhibitor, single point]	
CCN(Cc1ccccc1)C(=O)c1cc2c(s1)-c1c(C)cccc1OC2	inconclusive: 28.2 µM [inhibitor, single point]	
Cc1ccc(Cl)cc1NC(=O)Cn1c(=O)n(Cc2ccc(C(=O)NCc3ccc4c(c3)OCO4)cc2)c(=O)c2ccccc21		inactive: 9.22%
CCOC(=O)C1(Cc2ccccc2)CCCN(Cc2cccc(C(C)=O)c2)C1 (centres undefined)	inconclusive: 22.4 µM [inhibitor, partial curve, poor fit]	
Cc1sc2nc(CSCC(=O)Nc3ccc(C(F)(F)F)cc3)[nH]c(=O)c2c1C	inconclusive: 8.91 µM [inhibitor, partial curve, poor fit]	
CCOc1cccc(CN2CCC(n3nccc3NC(=O)CCCc3ccccc3)CC2)c1	active: 10 µM	
CC(C)(C)N(Cc1ccccc1)C(=O)COC(=O)C1CCCCC1	inconclusive: 28.2 µM [inhibitor, single point]	
COC(=O)c1cccc(S(=O)(=O)N(Cc2ccco2)Cc2cc3cc(OC)c(OC)cc3[nH]c2=O)c1		inactive: -5.24%
CC(=O)OCC(=O)[C@@]12OC3(CCCC3)O[C@@H]1C[C@H]1[C@@H]3CCC4=CC(=O)C=C[C@]4(C)[C@@]3(F)[C@@H](O)C[C@@]12C	inconclusive: 10 µM [inhibitor, partial curve, poor fit]	
COc1ccc(S(=O)(=O)Nc2ccc3c(c2)n(C)c(=O)n3C)cc1OC		inactive: 103%

SMILES	Potency	activity change, negative = inhibition
O=C1c2cccc3cccc(c23)C(=O)N1CCN1CCN(CC(O)COCc2ccc(Cl)cc2)CC1 (centres undefined)	inconclusive: 28.2 µM [inhibitor, single point]	
CCN(CC)c1ccc(/C=N/NC(=O)Cc2nnc(NC(=O)Nc3ccccc3)s2)cc1	inconclusive: 12.6 µM [inhibitor, single point]	
CC(=C/c1ccccc1)/C=N/n1c(-c2ccncc2)n[nH]c1=S	inconclusive: 1.41 µM [inhibitor, full curve, poor fit]	
CSCCC(NC(=O)COc1ccccc1)C(=O)N(C)Cc1c(F)cccc1Cl (centres undefined)	inconclusive: 10 µM [inhibitor, partial curve, poor fit]	
CC(C(=O)Nc1nc(-c2ccc(F)c(F)c2)cs1)N1C(=O)C2CC=CCC2C1=O (centres undefined)	inconclusive: 10 µM [inhibitor, partial curve, poor fit]	
O=C(CCCN1C(=O)/C(=C/c2ccccc2)SC1=S)NCCCn1ccnc1	inconclusive: 7.94 µM [inhibitor, partial curve, poor fit]	
CC(=O)N1c2c(cc(Br)cc2S(=O)(=O)N2CCN(c3cccc(Cl)c3)CC2)CC1C (centres undefined)		inactive: 1.11%
COc1cccc(NC(=O)CN2CCSc3ccccc32)c1	inconclusive: 11.2 µM [inhibitor, single point]	
S=C(NCc1ccc(Cl)cc1)NC1CCCCC1	inconclusive: 11.2 µM [inhibitor, partial curve, poor fit]	
CCCN(c1ccc(OCC)cc1)S(=O)(=O)c1ccc2c(c1)NC(=O)CO2	inconclusive: 10 µM [inhibitor, partial curve, poor fit]	
CCOc1ccc(-c2ccc(SCc3ccccn3)nn2)cc1		inactive: 16.8% [at 7.66 µM]
COCc1cc(N2CCN(c3ccccc3F)CC2)nc(-c2ccccc2)n1	inconclusive: 10 µM [inhibitor, partial curve, poor fit]	
CCCN(C(=O)c1ccco1)c1nnc(-c2ccccc2C)s1	inconclusive: 28.2 µM [inhibitor, single point]	
O=C(NC1CCCCC1)c1ccc2c(c1)N(Cc1ccc(Cl)cc1)C(=O)c1ccccc1S2(=O)=O	inconclusive: 7.08 µM [inhibitor, partial curve]	
Cc1cccc(NC(=O)c2nc[nH]c2C(=O)N[C@@H](Cc2ccccc2)C(=O)OC(C)(C)C)c1	inconclusive: 8.91 µM [inhibitor, partial curve, poor fit]	
Cc1ccc(S(=O)(=O)Nc2cccnc2)cc1C		inactive: 2%
CCC(=O)N(C1=C(NC)C(=O)c2ccccc2C1=O)C(C)C	inconclusive: 10 µM [inhibitor, single point]	
OC(c1ccc(-c2ccccc2)cc1)c1ncc(-c2ccccc2F)[nH]1 (centres undefined)	inconclusive: 10 µM [inhibitor, single point]	
CCSC1(SCC)N=C(N)C2(C#N)C(c3ccc(OC)c(OC)c3OC)C12C#N (centres undefined)	inconclusive: 10 µM [inhibitor, partial curve, poor fit]	
